This note sets out measurements from PubChem BioAssay AID1240 (Sanford-Burnham Center for Chemical Genomics, 2008).

Values joined by “and” are separate entries in the source; they are usually repeats but may differ in a detail not shown here. Identical values can stand only once. Hit rate of the full screen: of about 50,000 compounds, about 800 (1.6%) showed an effect of 50% or more. Some of the results follow.

The assay has as its target Bcl-2-like protein 10 (Homo sapiens) (UniProt Q9HD36). In words: TR3 peptide-Bcl-B binding displacers, biochemical primary FP assay, phenotype converters (AID 1240).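 Further: 0% = Bcl-B with tracer peptide and DMSO and 100% = tracer peptide lacking Bcl-B.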 To be noted: GST-Bcl-B / FITC-TR3 peptide fluorescence polarization; stronger effect = higher value; compound at 3.75 mg/L.
UniProt Q9HD36, sequence (Q9HD36 whole entry, looked up): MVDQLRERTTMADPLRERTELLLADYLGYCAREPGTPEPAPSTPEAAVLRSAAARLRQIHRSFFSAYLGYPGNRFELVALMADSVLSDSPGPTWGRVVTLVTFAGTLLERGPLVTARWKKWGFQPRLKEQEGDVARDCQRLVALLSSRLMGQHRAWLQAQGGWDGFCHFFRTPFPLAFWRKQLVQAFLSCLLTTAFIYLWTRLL
Consider `O=C(O)c1cccc(-c2ccc(/C=N/N3C(=O)C4C(C3=O)C3C=CC4C34CC4)o2)c1` (configuration not stated), for which the displacement is 8.9%.

Take `COc1cc(/C=C2\C(=O)NC(=S)N(c3ccc(Cl)cc3)C2=O)ccc1OCC(=O)O`: the displacement worked out at 7.5%.

Take `CCOc1ccc(NC(=O)c2ccc(OC)c(OC)c2)c([N+](=O)[O-])c1`: the displacement turned out to be 20.5%.

In the case of `CCN(CC)c1ccc(C=Nc2cccc([N+](=O)[O-])c2C)cc1`, the displacement turned out to be 12.4%.

Turning to `COc1ccc(C(=O)NC2CC(C)(C)NC(C)(C)C2)cc1OC`, the displacement is -2.1%.

With `CC1CC2(C)CC(C)C1(COC(=O)Nc1ccccc1)CO2` (configuration not stated), the displacement is -7.3%.

For `CC(=O)CC(=O)Nc1ccc(NC(C)=O)cc1`, the displacement amounted to 0%.

As for `CC(C)=NNc1nc2sc3c(c2c(=O)n1-c1ccc(C)cc1)CC(C)(C)OC3`, the displacement was -2.7%.

With `Cn1c(=O)cc2c3c(c(Nc4cccc(Cl)c4)ccc31)C(=O)c1ccccc1-2`, the displacement is 15.7%.

Turning to `CC1=C(C(=O)OC(C)C)C(c2cccs2)C2=C(CC(c3ccccc3)CC2=O)N1` (configuration not stated), the displacement is -7.4%.

In the case of `O=C(Nc1ccc(Cl)c(C(F)(F)F)c1)c1ccco1`, the displacement is -5.9%.

For the compound `C#CCSc1nc2sc(C)c(C)c2c(=O)n1CC=C`, the displacement worked out at 34.6%.

Consider `CCOC(=O)c1c(-c2ccccc2)oc2ccc(OC(=O)c3cccs3)cc12`, for which the displacement came to 7.5%.

`Cc1cc(C(=O)N/N=C\c2cc(Br)ccc2OCc2ccccc2)n[nH]1`: the displacement was -2%.

Take `O=C(c1ccc(F)cc1)N(c1ccc(Cl)cc1)C1C=CS(=O)(=O)C1` (configuration not stated): the displacement is 8.6%.

On to `COc1ccc(Nc2n[nH]c(C)c2[N+](=O)[O-])cc1`, for which the displacement stood at 1.8%.

`COc1cc2c(cc1OC)-c1nnc(-c3ccco3)n1C(C)(C)C2`: the displacement is -0.1%.

On to `O=C(COc1ccccc1)NCc1ccccn1`, for which the displacement stood at 10%.

As to `COc1ccc(C2=CC(c3cccs3)C=C(c3ccc(OC)cc3)O2)cc1`, the displacement was determined as 162%.

As for `CC(C)CNC(=O)c1ccccc1NC(=O)CSCc1ccccc1`, the displacement turned out to be 43.4%.

`COc1ccc(Cl)cc1C(=O)Nc1cccc(C)c1`: the displacement was -8.3%.

Turning to `CCOc1cc(OCC)cc(C(=O)Nc2ccc(NC(=O)CC)cc2)c1`, the displacement is -0.9%.

With `O=C(Nc1ccccc1C(=O)NCc1ccco1)c1ccccc1`, the displacement was 10.4%.

With `O=c1c2ccc(Br)c3cccc(c32)c2nc3ccc4c5c(ccc(c35)n12)CC4`, the displacement was determined as 13.3%.

On to `O=c1oc2ccccc2c2c1ncn2C1CCCCC1`, for which the displacement was -1.9%.

With `CC(=O)c1ccc(NC(=S)Nc2ccccc2)cc1`, the displacement is 2.5%.

As to `CC1=C(C(=O)OC2CCCCC2)C(c2ccc(Br)cc2)C2=C(CCCC2=O)N1` (configuration not stated), the displacement is -2%.

Regarding `O=C(Nc1nnc(COc2ccc(C3CCCCC3)cc2)s1)c1cccc(Cl)c1`, the displacement was 15.6%.

Consider `CCOc1cc(/C=C2\C(=O)NC(=O)N(c3cc(C)cc(C)c3)C2=O)ccc1O`, for which the displacement came out at 10.5%.

As to `CCOc1ccc(NC(=O)C2C3/C=C\CCCCC32)cc1` (configuration not stated), the displacement is -1.2%.

`O=C1NN(c2ccc(Cl)cc2)C(=O)/C1=C\c1ccc(F)cc1`: the displacement came out at 4%.

Regarding `CC1CCc2c(sc(NC(=O)Cc3ccccc3)c2C(N)=O)C1` (configuration not stated), the displacement is -7.2%.

As for `COc1ccc(CC(=O)ONC(=O)c2ccc(Cl)cc2)cc1OC`, the displacement turned out to be 12.8%.

On to `O=C(NC(=S)NCCc1ccccc1)c1ccccc1`, for which the displacement is 12.2%.

For `CC1=C(C(=O)Nc2ccc(Cl)cc2)C(c2ccc(Cl)cc2Cl)NC(=S)N1` (configuration not stated), the displacement is -5.7%.

In the case of `O=C1Nc2ccc([N+](=O)[O-])cc2C12NN=C(c1ccccc1)S2` (configuration not stated), the displacement worked out at 33.5%.

As to `O=C(NCc1ccc2c(c1)OCO2)c1ccc(S(=O)(=O)N2CCCC2)cc1`, the displacement was found to be 1.1%.

As for `O=C1CN(C(=O)c2ccc([N+](=O)[O-])cc2)c2ccccc2N1`, the displacement stood at 3%.

Take `CCSC1=C(C#N)C(c2ccc(Br)cc2)CC(=O)N1` (configuration not stated): the displacement was -1.5%.

With `COc1ccc(-c2ccc(-c3nnc(-c4ccc([N+](=O)[O-])cc4)o3)cc2)cc1`, the displacement was -5.3%.

On to `COc1ccccc1N1CCN(C(=O)c2ccc(C)c(C)c2)CC1`, for which the displacement stood at 1.6%.

Turning to `CC1CCc2nc(NC(=O)c3ccc(S(=O)(=O)N4CCCc5ccccc54)cc3)sc2C1` (configuration not stated), the displacement turned out to be 7.8%.

For the compound `O=C(COc1ccccc1)Nc1ccc(C(=O)OC2CCCCC2)cc1`, the displacement is -4.8%.

On to `O=C1NC(=S)N/C1=C/c1ccc(N2CCOCC2)cc1`, for which the displacement was 94.5%.

With `COc1cc2c(cc1OC)C(CSc1ccccc1C(=O)O)=NC(C)(C)C2`, the displacement was 0.5%.

As to `COc1ccc(NS(=O)(=O)c2ccc(F)cc2)c([N+](=O)[O-])c1`, the displacement was -2.5%.

As to `CCc1ccc(/C=C2\SC(=O)NC2=O)cc1`, the displacement stood at 8.8%.

Regarding `CCOC(=O)C1=CC2(SC=C(C(=O)OCC)S2)C2=C(S1)C(C)(C)N(C(=O)CC)c1ccc(C)cc12` (configuration not stated), the displacement was 0.1%.

Take `COc1cc(/C=C2\C(=O)NC(=S)N(c3ccccc3)C2=O)c([N+](=O)[O-])cc1OC`: the displacement was 19.6%.

For the compound `CC(=O)Oc1cccc(N2C(=O)C3C4C=CC(C4)C3C2=O)c1` (configuration not stated), the displacement stood at 4.1%.

Consider `CCOc1ccc(NC(=O)C(=O)NCc2ccc(C)cc2)cc1`, for which the displacement worked out at 0.4%.

For the compound `COC(=O)c1ccccc1NC(=O)c1ccc(-c2ccccc2)cc1`, the displacement worked out at 12.1%.

As to `CCN(CC)c1nc(-c2ccccc2Cl)nc2ccccc12`, the displacement was 6.9%.

Turning to `FC(F)(F)c1ccccc1CN1CCN(Cc2ccc3ccccc3c2)CC1`, the displacement is -12%.

`CC(=O)/C(C1=C(C(C)(C)C)C(=O)C(=O)C(C(C)(C)C)=C1)=C(/C)O`: the displacement was -5.5%.

On to `CCN(CC)C(=O)CN(c1ccccc1OC)S(=O)(=O)c1ccccc1`, for which the displacement was -0.6%.

As to `CC1(C)Cc2c(sc3nc(SCCOc4ccccc4)n(-c4ccccc4)c(=O)c23)CO1`, the displacement is 2.6%.

As for `Cc1cc(=O)cc(C)n1-c1ccc(Cl)cc1`, the displacement was found to be 2.2%.

With `C/C(=N\OCC(=O)N/N=C/c1ccccc1O)c1cccs1`, the displacement is -17.4%.

Turning to `CN1CCN(c2ccc3c4c(cccc24)C(=O)N(CCO)C3=O)CC1`, the displacement came to 155%.

Take `Cc1cccc(-n2c(CCN3C(=O)c4ccccc4C3=O)nc3ccccc3c2=O)c1`: the displacement was -11.3%.

Turning to `COc1ccc(/C=C/C(=O)c2c(C)nc3ccc(Br)cc3c2-c2ccccc2)cc1OC`, the displacement is -22.1%.

In the case of `Cc1cc(N(C)/N=C/c2cccnc2)nc(-c2ccccc2O)n1`, the displacement is -2.7%.

In the case of `COc1cc(OC)cc(C(=O)N2CCN(C(=O)c3ccccc3OC)CC2)c1`, the displacement is -0.4%.

For the compound `Cc1onc(-c2ccccc2)c1C(=O)Nc1cccc(Br)c1`, the displacement is -7.8%.

For `Cc1cc(OCCN2CCOCC2)ccc1Cl`, the displacement was -1.9%.

For `FC(F)(F)c1ccccc1CN1CCN(C2CCCCC2)CC1`, the displacement stood at 1.4%.

On to `COc1ccc(-c2[nH]ncc2/C=N/NC(=O)c2ccc(Br)cc2)c(OC)c1`, for which the displacement is 0.2%.

As for `CC(=O)NC1=NC(=O)/C(=C\c2cn(C)c3ccccc23)S1`, the displacement is 123%.

Take `COc1cc(NC(=O)COc2ccc(C)cc2C)ccc1NC(=O)c1ccco1`: the displacement was -3.3%.

With `COc1c(Cl)cc(/C=C2/SC(=S)N(c3ccccc3)C2=O)cc1Cl`, the displacement is 16.4%.

Regarding `Cc1cc(=O)[nH]c(SCC(=O)c2ccc(Br)cc2)n1`, the displacement is 17.2% and -5.2%.

For `O=C(Nc1ccc(NC(=O)c2ccc([N+](=O)[O-])cc2)cc1)c1ccc(Br)cc1`, the displacement is 2.8%.

With `Cc1ccc(S(=O)(=O)Oc2ccc(/C=C3/SC(=S)N(C)C3=O)cc2)cc1`, the displacement was -3.3%.

As for `OCCN(CCO)c1ccc(C(c2ccc(Cl)cc2)c2ccc(N(CCO)CCO)cc2)cc1`, the displacement turned out to be 9.7%.

With `COc1ccccc1NC(=O)c1cccc(S(=O)(=O)N2CCOCC2)c1`, the displacement turned out to be 3.8%.

With `Cc1ccc(Cl)cc1NC(=O)/C(C#N)=C\c1ccc(I)o1`, the displacement is -15.6%.

`COCCOC(=O)C1=C(C)NC2=C(C(=O)CC(C)(C)C2)C1c1cccc(Cl)c1` (configuration not stated): the displacement amounted to 1.1%.

As for `O=C(NCCN1CCOCC1)c1cccc(C(=O)NCCN2CCOCC2)c1`, the displacement is -3.8%.

On to `O=C1NC(=S)N/C1=C/c1ccc(-c2ccc(F)c(Cl)c2)o1`, for which the displacement was determined as 16.4%.

Turning to `O=C(Oc1cccc(/C=N/Nc2nc(N3CCOCC3)nc(N3CCOCC3)n2)c1)c1ccco1`, the displacement was -7.1%.

On to `CCOc1ccc(/C=C/C(=O)c2cccc(Br)c2)cc1`, for which the displacement amounted to 9.5%.

Regarding `COc1cccc(/C=N/N2C(=O)c3cccc4cccc(c34)C2=O)c1OC`, the displacement turned out to be 12.9%.

As for `O=C(O)c1ccc(CSc2ncccn2)cc1`, the displacement was -16.7%.

Turning to `COc1ccc(Br)cc1CN1CCN(Cc2ccc([N+](=O)[O-])cc2)CC1`, the displacement was -11.1%.

On to `COC(=O)c1ccc(/C=C2\SC(=Nc3cccc(Cl)c3Cl)NC2=O)cc1`, for which the displacement was -1.6%.

Take `COC(=O)C1=C(C(=O)OC)SC(=C2C(=S)C(C)(C)N(C(=O)c3ccc(OC)cc3)c3ccc(OC)cc32)S1`: the displacement was -0.5%.

As to `O=[N+]([O-])c1cccc(NN=C2CCCC2)c1`, the displacement was -9.3%.

Consider `COc1ccc2c(c1)OCC/C2=N\OC(=O)c1cc(OC)c(OC)c(OC)c1`, for which the displacement was -2.9%.

Consider `COc1ccc(/C=C2\C(=O)N(c3cccc(C(=O)O)c3)N=C2C)cc1Br`, for which the displacement amounted to 21.9%.

For `O=C(CCNc1n[nH]c(=O)[nH]c1=O)OCc1ccccc1`, the displacement was -0.5%.

Consider `COC(=O)C1=C(C)NC(C)=C(C(=O)OC)C1c1ccc(OC)c([N+](=O)[O-])c1`, for which the displacement is -10.3%.

`CCOc1ccc2cc(S(=O)(=O)N3CCCCC3C)ccc2c1` (configuration not stated): the displacement was found to be 8.8%.

In the case of `Cc1cc(=O)oc2cc(OCC(=O)c3ccc(Cl)cc3)ccc12`, the displacement was found to be 12.9%.

Consider `COc1ccc(N(CC(=O)NC23CC4CC(CC(C4)C2)C3)S(=O)(=O)c2ccccc2)cc1`, for which the displacement was determined as 2.4%.

As for `COc1ccc(CCNC(=O)CSc2nnc(-c3cccc(F)c3)n2-c2ccccc2)cc1OC`, the displacement was -11.1%.

In the case of `COc1ccc(C2CC(=O)C3=C(C2)Nc2ccccc2NC3c2ccccc2Cl)cc1OC` (configuration not stated), the displacement was found to be 9.1%.

For the compound `CC(Sc1ccc(Cl)cc1)C(=O)NCCc1ccccc1` (configuration not stated), the displacement was determined as 4.9%.

As for `COc1ccc2c(c1OC)C(=O)N(c1ccc(C)cc1)C2=O`, the displacement is -11.2%.

On to `Cc1cc(OCC(=O)Nc2ccc(C(C)C)cc2)ccc1Cl`, for which the displacement was -6.6%.

Turning to `Cc1cc(C)c(NC(=O)C(C)Sc2nc3ccc(N4C(=O)c5ccccc5C4=O)cc3s2)c(C)c1` (configuration not stated), the displacement amounted to 18.3%.

`c1ccc(-c2onc3ccc4c5ccccc5oc4c23)cc1`: the displacement was -0.7%.

In the case of `CC(C)c1ccc(NC2=NS(=O)(=O)c3ccccc32)cc1`, the displacement is -2.8%.

For the compound `COC(=O)CN(c1cccc(C(F)(F)F)c1)S(C)(=O)=O`, the displacement is 11.7%.

As to `CC1CN(C(=O)c2cc(-c3ccccc3)nc3ccccc23)CC(C)O1` (configuration not stated), the displacement was -3.7%.

For `O=C(NCc1ccccn1)c1cc(-c2ccccc2)nc2ccccc12`, the displacement was -7.8%.

In the case of `CCC1=NN2C(=N)/C(=C/c3ccc(OCc4ccccc4)cc3)C(=O)N=C2S1`, the displacement was 48.9%.
